Laboratory results as given in the supplement of paper PMC8728848.
This is one part of the list.

Columns and labels:
Experiment in all cases: glycan array binding signal (z-score within array); higher = stronger binding
Details in all cases: glycan notation: IUPAC condensed, linker removed
[1] = molecular target: GlcNAc(b1-6)Gal(b1-4)GlcNAc
Summary of the method: (§1)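 Glycan array data came from 3228 arrays in the Consortium for Functional Glycomics database, and only arrays with an available protein sequence were kept. Glycan names were put into IUPAC-condensed notation, and columns mapping to the same glycan were averaged. The binding signal is a within-array Z-score, averaged across arrays of one protein sequence run at different concentrations or buffers and across linkers. A negative Z-score can be read as non-binding.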

GlcNAc(b1-6)GalNAc = molecular target: GlcNAc(b1-6)GalNAc
Summary of the method: as §1

GlcNAc3Prop(b1-4)GlcNAc = molecular target: GlcNAc3Prop(b1-4)GlcNAc
Summary of the method: as §1

[2] = molecular target: GlcNAc6S(b1-3)Gal(b1-4)GlcNAc
Summary of the method: as §1

Kdn(a2-3)Gal(b1-3)GalNAc = molecular target: Kdn(a2-3)Gal(b1-3)GalNAc
Summary of the method: as §1

Kdn(a2-3)Gal(b1-3)GlcNAc = molecular target: Kdn(a2-3)Gal(b1-3)GlcNAc
Summary of the method: as §1

Kdn(a2-3)Gal(b1-4)Glc = molecular target: Kdn(a2-3)Gal(b1-4)Glc
Summary of the method: as §1

Kdn(a2-3)Gal(b1-4)GlcNAc = molecular target: Kdn(a2-3)Gal(b1-4)GlcNAc
Summary of the method: as §1

[3] = molecular target: Kdn(a2-3)Gal(b1-4)[Fuc(a1-3)]GlcNAc
Summary of the method: as §1

Kdn(a2-6)Gal(b1-4)GlcNAc = molecular target: Kdn(a2-6)Gal(b1-4)GlcNAc
Summary of the method: as §1

[4] = molecular target: Man(a1-2)Man(a1-2)Man(a1-3)Man
Summary of the method: as §1

[5] = molecular target: Man(a1-2)Man(a1-2)Man(a1-6)[Man(a1-3)]Man
Summary of the method: as §1

Man(a1-2)Man(a1-3)Man = molecular target: Man(a1-2)Man(a1-3)Man
Summary of the method: as §1

[6] = molecular target: Man(a1-2)Man(a1-3)[Man(a1-2)Man(a1-6)]Man
Summary of the method: as §1

[7] = molecular target: Man(a1-2)Man(a1-3)[Man(a1-2)Man(a1-6)]Man(a1-6)[Man(a1-2)Man(a1-2)Man(a1-3)]Man
Summary of the method: as §1

[8] = molecular target: Man(a1-2)Man(a1-3)[Man(a1-2)Man(a1-6)]Man(a1-6)[Man(a1-2)Man(a1-2)Man(a1-3)]Man(b1-4)GlcNAc(b1-4)GlcNAc
Summary of the method: as §1

[9] = molecular target: Man(a1-2)Man(a1-3)[Man(a1-6)]Man(a1-6)[Man(a1-2)Man(a1-3)]Man(b1-4)GlcNAc(b1-4)GlcNAc
Summary of the method: as §1

[10] = molecular target: Man(a1-2)Man(a1-6)[Man(a1-3)]Man(a1-6)[Man(a1-2)Man(a1-2)Man(a1-3)]Man
Summary of the method: as §1

[11] = molecular target: Man(a1-2)Man(a1-6)[Man(a1-3)]Man(a1-6)[Man(a1-2)Man(a1-2)Man(a1-3)]Man(b1-4)GlcNAc(b1-4)GlcNAc
Summary of the method: as §1

Man(a1-3)[Man(a1-6)]Man = molecular target: Man(a1-3)[Man(a1-6)]Man
Summary of the method: as §1

[12] = molecular target: Man(a1-3)[Man(a1-6)]Man(a1-6)[Man(a1-2)Man(a1-3)]Man(b1-4)GlcNAc(b1-4)GlcNAc
Summary of the method: as §1

[13] = molecular target: Man(a1-3)[Man(a1-6)]Man(a1-6)[Man(a1-3)]Man
Summary of the method: as §1

[14] = molecular target: Man(a1-3)[Man(a1-6)]Man(a1-6)[Man(a1-3)]Man(b1-4)GlcNAc(b1-4)GlcNAc
Summary of the method: as §1

[15] = molecular target: Man(a1-3)[Man(a1-6)]Man(b1-4)GlcNAc(b1-4)GlcNAc
Summary of the method: as §1

[16] = molecular target: Man(a1-3)[Man(a1-6)]Man(b1-4)GlcNAc(b1-4)[Fuc(a1-6)]GlcNAc
Summary of the method: as §1

Man(a1-6)Man = molecular target: Man(a1-6)Man
Summary of the method: as §1

Man(b1-4)GlcNAc = molecular target: Man(b1-4)GlcNAc
Summary of the method: as §1

Neu5Ac(a2-3)Gal = molecular target: Neu5Ac(a2-3)Gal
Summary of the method: as §1

[17] = molecular target: Neu5Ac(a2-3)Gal(b1-3)GalNAc
Summary of the method: as §1

[18] = molecular target: Neu5Ac(a2-3)Gal(b1-3)GalNAc(b1-3)Gal(a1-4)Gal(b1-4)Glc
Summary of the method: as §1

[19] = molecular target: Neu5Ac(a2-3)Gal(b1-3)GalNAc(b1-4)[Neu5Ac(a2-3)]Gal(b1-4)Glc
Summary of the method: as §1

[20] = molecular target: Neu5Ac(a2-3)Gal(b1-3)GalNAc(b1-4)[Neu5Ac(a2-8)Neu5Ac(a2-3)]Gal(b1-4)Glc
Summary of the method: as §1

[21] = molecular target: Neu5Ac(a2-3)Gal(b1-3)GalNAc6S
Summary of the method: as §1

[22] = molecular target: Neu5Ac(a2-3)Gal(b1-3)GlcNAc
Summary of the method: as §1

[23] = molecular target: Neu5Ac(a2-3)Gal(b1-3)GlcNAc(b1-2)Man(a1-3)[GlcNAc(b1-4)][Neu5Ac(a2-3)Gal(b1-3)GlcNAc(b1-2)Man(a1-6)]Man(b1-4)GlcNAc(b1-4)GlcNAc
Summary of the method: as §1

[24] = molecular target: Neu5Ac(a2-3)Gal(b1-3)GlcNAc(b1-3)Gal(b1-3)GlcNAc
Summary of the method: as §1

[25] = molecular target: Neu5Ac(a2-3)Gal(b1-3)GlcNAc(b1-3)Gal(b1-4)GlcNAc
Summary of the method: as §1

[26] = molecular target: Neu5Ac(a2-3)Gal(b1-3)GlcNAc(b1-3)GalNAc
Summary of the method: as §1

[27] = molecular target: Neu5Ac(a2-3)Gal(b1-3)GlcNAc(b1-6)GalNAc
Summary of the method: as §1

[28] = molecular target: Neu5Ac(a2-3)Gal(b1-3)GlcNAc6S
Summary of the method: as §1

[29] = molecular target: Neu5Ac(a2-3)Gal(b1-3)[Fuc(a1-4)]GlcNAc
Summary of the method: as §1

[30] = molecular target: Neu5Ac(a2-3)Gal(b1-3)[Fuc(a1-4)]GlcNAc(b1-3)Gal(b1-3)[Fuc(a1-4)]GlcNAc
Summary of the method: as §1

[31] = molecular target: Neu5Ac(a2-3)Gal(b1-3)[Fuc(a1-4)]GlcNAc(b1-3)Gal(b1-4)[Fuc(a1-3)]GlcNAc
Summary of the method: as §1

[32] = molecular target: Neu5Ac(a2-3)Gal(b1-3)[Neu5Ac(a2-3)Gal(b1-4)]GlcNAc
Summary of the method: as §1

[33] = molecular target: Neu5Ac(a2-3)Gal(b1-3)[Neu5Ac(a2-6)]GalNAc
Summary of the method: as §1

B1: CIH1 (Colletotrichum higginsianum) (protein)
chain: LPQATPTTPTPTSASAAATISATSSPTCSPGPVIDYTVVSGDTLTIISQRFSSGICNIADASGITNPNFLSLGQVLQVPTYVCTPDNTSCLAKEGSDTCVEGGPATHTIVAGDTFFLVAQSLGLDVNALLAANEGVDPLLLQIGDVINIPVC
In the case of B1, the “glycan array binding signal (z-score)” value [1] is reported as -0.073, the “glycan array binding signal (z-score)” value (GlcNAc(b1-6)GalNAc) is reported as -0.076 and the “glycan array binding signal (z-score)” value (GlcNAc3Prop(b1-4)GlcNAc) is reported as -0.075. The “glycan array binding signal (z-score)” value [2] was -0.055, the “glycan array binding signal (z-score)” value (Kdn(a2-3)Gal(b1-3)GalNAc) was -0.068 and the “glycan array binding signal (z-score)” value (Kdn(a2-3)Gal(b1-3)GlcNAc) was -0.082. The “glycan array binding signal (z-score)” value (Kdn(a2-3)Gal(b1-4)Glc) was -0.015, the “glycan array binding signal (z-score)” value (Kdn(a2-3)Gal(b1-4)GlcNAc) was -0.058 and the “glycan array binding signal (z-score)” value [3] was -0.07. The “glycan array binding signal (z-score)” value (Kdn(a2-6)Gal(b1-4)GlcNAc) was -0.075, the “glycan array binding signal (z-score)” value [4] was -0.049 and the “glycan array binding signal (z-score)” value [5] was -0.068. The “glycan array binding signal (z-score)” value (Man(a1-2)Man(a1-3)Man) was -0.073, the “glycan array binding signal (z-score)” value [6] was -0.062 and the “glycan array binding signal (z-score)” value [7] was -0.076. For the same binder, the “glycan array binding signal (z-score)” value [8] was -0.048, the “glycan array binding signal (z-score)” value [9] was -0.068 and the “glycan array binding signal (z-score)” value [10] was -0.065. The “glycan array binding signal (z-score)” value [11] was -0.074, the “glycan array binding signal (z-score)” value (Man(a1-3)[Man(a1-6)]Man) was -0.045 and the “glycan array binding signal (z-score)” value [12] was -0.088. For the same binder, the “glycan array binding signal (z-score)” value [13] was -0.076, the “glycan array binding signal (z-score)” value [14] was -0.059 and the “glycan array binding signal (z-score)” value [15] was -0.069. The “glycan array binding signal (z-score)” value [16] was -0.048, the “glycan array binding signal (z-score)” value (Man(a1-6)Man) was -0.082 and the “glycan array binding signal (z-score)” value (Man(b1-4)GlcNAc) was -0.075. For the same binder, the “glycan array binding signal (z-score)” value (Neu5Ac(a2-3)Gal) was -0.067, the “glycan array binding signal (z-score)” value [17] was -0.074 and the “glycan array binding signal (z-score)” value [18] was -0.067. For the same binder, the “glycan array binding signal (z-score)” value [19] was -0.055, the “glycan array binding signal (z-score)” value [20] was -0.066 and the “glycan array binding signal (z-score)” value [21] was -0.086. The “glycan array binding signal (z-score)” value [22] was -0.05, the “glycan array binding signal (z-score)” value [23] was -0.072 and the “glycan array binding signal (z-score)” value [24] was -0.068. For the same binder, the “glycan array binding signal (z-score)” value [25] was -0.074, the “glycan array binding signal (z-score)” value [26] was -0.061 and the “glycan array binding signal (z-score)” value [27] was -0.061. For the same binder, the “glycan array binding signal (z-score)” value [28] was -0.069, the “glycan array binding signal (z-score)” value [29] was -0.06 and the “glycan array binding signal (z-score)” value [30] was -0.078. For the same binder, the “glycan array binding signal (z-score)” value [31] was -0.074, the “glycan array binding signal (z-score)” value [32] was -0.065 and the “glycan array binding signal (z-score)” value [33] was -0.075.
